Laboratory results as given in US9580428B2, “Compositions and methods for inhibiting viral polymerase” (priority 2012, dated 2017).
Where two headings read alike, the source gives them in different places.

Columns and labels:
[1] = test system: Measles virus (MV), strain Chicago; experiment: microbe, parasite or virus in culture; details: Measles morbillivirus
[2] = test system: Measles virus (MV), strain Chicago; experiment: microbe, parasite or virus in culture; details: Measles morbillivirus; remark: listed apart in the source
[3] = read-out: EC50 against the measles virus

Cl.Cl.Nc1ncnc2c([C@@H]3N[C@H](CO)[C@@H](O)[C@H]3O)c[nH]c12 [compound 12i, (2S,3S,4R,5R)-2-(4-amino-5H-pyrrolo[3,2-d]pyrimidin-7-yl)-5-(hydroxymethyl)pyrrolidine-3,4-diol dihydrochloride] was tested, and the EC50 [1] was 1.4 µg/mL, the EC50 [1, 3] was 1.4 µg/mL and the EC50 [2] was 0.6 µg/mL. For the same compound, the EC50 [2, 3] was 0.6 µg/mL.
